Test results reported in PubChem BioAssay AID1745853 (National Center for Advancing Translational Sciences (NCATS), 2022).
This is one part of the list. The main result of the screen is listed elsewhere. These columns were measured beside it and carry no call.

Legend:
Experiment in all cases: Primary Screen for Target Class Profiling of Small Molecule Inhibitors of Methyltransferases
[1] = target: Glycine N-methyltransferase (Homo sapiens) (UniProt Q14749); conditions: purified enzyme, MTase-Glo SAH luminescence; measured here: GNMT inhibition; at 40 µM; stronger effect = lower value
Outline: (§1)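 Each enzyme was reacted with SAM and its substrate, with compounds tested once at 40 uM; SAH formed was read by MTase-Glo luminescence.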

[2] = target: Guanidinoacetate N-methyltransferase (Homo sapiens) (UniProt Q14353); conditions: purified enzyme, MTase-Glo SAH luminescence; measured here: GAMT inhibition; at 40 µM; stronger effect = lower value
Outline: as §1

[3] = target: Histamine N-methyltransferase (Homo sapiens) (UniProt P50135); conditions: purified enzyme, MTase-Glo SAH luminescence; measured here: HNMT inhibition; at 40 µM; stronger effect = lower value
Outline: as §1

[4] = target: Nicotinamide N-methyltransferase (Homo sapiens) (UniProt P40261); conditions: purified enzyme, MTase-Glo SAH luminescence; measured here: NNMT inhibition; at 40 µM; stronger effect = lower value
Outline: as §1

[5] = target: Phenylethanolamine N-methyltransferase (Homo sapiens) (UniProt P11086); conditions: purified enzyme, MTase-Glo SAH luminescence; measured here: PNMT inhibition; at 40 µM; stronger effect = lower value
Outline: as §1
% is scaled to controls: 0 for no effect and ±100 for the full control effect.

## O=C(NC[C@H](O)CN1CCc2ccccc2C1)c1ccnc(NC2CCC2)c1
[1]
  activity change, negative = inhibition: 2.04%
[2]
  activity change, negative = inhibition: 7.19%
[3]
  activity change, negative = inhibition: -6.42%
[4]
  activity change, negative = inhibition: -10.8%
[5]
  activity change, negative = inhibition: -0.166%

## CC(C)CCN1C(=O)c2c(-n3cccc3)c3cc(F)ccc3n2CC1(C)C(=O)NC1CCCCCC1 (stereo not given)
[1]
  activity change, negative = inhibition: -8.88%
[2]
  activity change, negative = inhibition: 3.37%
[3]
  activity change, negative = inhibition: -4.16%
[4]
  activity change, negative = inhibition: -12.7%
[5]
  activity change, negative = inhibition: 2.25%

## C=C1CC[C@@H]2[C@](C)(CO)[C@H](O[C@@H]3O[C@H](CO)[C@@H](O)[C@H](O)[C@H]3O)CC[C@@]2(C)[C@@H]1C/C=C1/C(=O)OC[C@H]1O
[1]
  activity change, negative = inhibition: -9.71%
[2]
  activity change, negative = inhibition: -7.91%
[3]
  activity change, negative = inhibition: -2.9%
[4]
  activity change, negative = inhibition: -18.6%
[5]
  activity change, negative = inhibition: -18.1%

## Cc1cc(C)c(S(=O)(=O)N(Cc2ccc(-c3cccc(S(C)(=O)=O)c3)cc2)Cc2ccc(C(F)(F)F)o2)c(C)c1
[1]
  activity change, negative = inhibition: 8.24%
[2]
  activity change, negative = inhibition: -20.4%
[3]
  activity change, negative = inhibition: 7.87%
[4]
  activity change, negative = inhibition: -26.9%
[5]
  activity change, negative = inhibition: -6.95%

## Cc1cc(NC(=O)N2CCn3cccc3C2C)ccc1Br (stereo not given)
[1]
  activity change, negative = inhibition: -1.38%
[2]
  activity change, negative = inhibition: 0%
[3]
  activity change, negative = inhibition: -3.21%
[4]
  activity change, negative = inhibition: -6.8%
[5]
  activity change, negative = inhibition: -0.522%

## CC(=O)N1CC2(CCN(C(=O)NCc3ccccc3)CC2)CC1C(=O)O (stereo not given)
[1]
  activity change, negative = inhibition: -2.77%
[2]
  activity change, negative = inhibition: -1.46%
[3]
  activity change, negative = inhibition: -0.991%
[4]
  activity change, negative = inhibition: -3.33%
[5]
  activity change, negative = inhibition: 0.418%

## O=C(c1ccncc1)N1CCC(Cc2noc(-c3ccccc3)n2)C1 (stereo not given)
[1]
  activity change, negative = inhibition: -5.34%
[2]
  activity change, negative = inhibition: -5.7%
[3]
  activity change, negative = inhibition: -0.195%
[4]
  activity change, negative = inhibition: -8.26%
[5]
  activity change, negative = inhibition: -10.6%

## COc1cc(N2CCN(C)CC2)ccc1Nc1nccc(-c2cn(C)c3cnccc23)n1
[1]
  activity change, negative = inhibition: -10.2%
[2]
  activity change, negative = inhibition: -0.47%
[3]
  activity change, negative = inhibition: -20.9%
[4]
  activity change, negative = inhibition: -27.4%
[5]
  activity change, negative = inhibition: -14.9%

## C[C@@H](NCC1CCCC1)c1onc(-c2ccc(Cl)cc2)c1C(=O)O
[1]
  activity change, negative = inhibition: -6.16%
[2]
  activity change, negative = inhibition: -9.39%
[3]
  activity change, negative = inhibition: -2.82%
[4]
  activity change, negative = inhibition: -7.74%
[5]
  activity change, negative = inhibition: -11.5%

## CNC(=O)[C@H]1O[C@@H](n2cnc3c(NCc4ccc(N)cc4)ncnc32)[C@H](O)[C@@H]1O
[1]
  activity change, negative = inhibition: -8.66%
[2]
  activity change, negative = inhibition: 4%
[3]
  activity change, negative = inhibition: -4.3%
[4]
  activity change, negative = inhibition: -3.21%
[5]
  activity change, negative = inhibition: 2.15%

## COC(=O)C1=CO[C@@H](O[C@@H]2O[C@H](CO)[C@@H](O)[C@H](O)[C@H]2O)[C@H]2[C@@H]1C=C[C@@]21C=C([C@H](C)O)C(=O)O1
[1]
  activity change, negative = inhibition: 1.46%
[2]
  activity change, negative = inhibition: 2.43%
[3]
  activity change, negative = inhibition: 8.27%
[4]
  activity change, negative = inhibition: -9.78%
[5]
  activity change, negative = inhibition: 4.85%

## COc1ccc2c(c1)c(NC(C)=O)c1n2CC(C)(C(=O)NCCC(C)C)N(Cc2ccco2)C1=O (stereo not given)
[1]
  activity change, negative = inhibition: 6.25%
[2]
  activity change, negative = inhibition: 1.92%
[3]
  activity change, negative = inhibition: 10.4%
[4]
  activity change, negative = inhibition: 14.6%
[5]
  activity change, negative = inhibition: 3.2%

## CN(CC(=O)Nc1ccc(F)c(Cl)c1)S(=O)(=O)c1ccc2[nH]c3c(c2c1)CCCC3
[1]
  activity change, negative = inhibition: -5.2%
[2]
  activity change, negative = inhibition: 3.76%
[3]
  activity change, negative = inhibition: -1.71%
[4]
  activity change, negative = inhibition: -4.24%
[5]
  activity change, negative = inhibition: -0.088%

## CCOc1ccc(CCN2C(=O)c3cc(-c4ccccc4)nn3CC2(C)C(=O)NCc2ccccc2)cc1 (stereo not given)
[1]
  activity change, negative = inhibition: 3.52%
[2]
  activity change, negative = inhibition: -0.517%
[3]
  activity change, negative = inhibition: 4.51%
[4]
  activity change, negative = inhibition: 2.35%
[5]
  activity change, negative = inhibition: -2.79%

## CC(CCC1(O)OC2CC3C4CC=C5CC(O[C@@H]6O[C@H](CO)[C@@H](O[C@@H]7O[C@@H](C)[C@H](O)[C@@H](O)[C@H]7O)[C@H](O)[C@H]6O[C@@H]6O[C@@H](C)[C@H](O)[C@@H](O)[C@H]6O)CCC5(C)C4CCC3(C)C2C1C)CO[C@@H]1O[C@H](CO)[C@@H](O)[C@H](O)[C@H]1O (stereo not given in full)
[1]
  activity change, negative = inhibition: 2.27%
[2]
  activity change, negative = inhibition: 1.85%
[3]
  activity change, negative = inhibition: 6.76%
[4]
  activity change, negative = inhibition: -8.8%
[5]
  activity change, negative = inhibition: -4.32%

## Cc1cnc(C2CCOCC2)n1C1CCN(S(=O)(=O)c2ccc3c(c2)OCCO3)CC1
[1]
  activity change, negative = inhibition: 1.35%
[2]
  activity change, negative = inhibition: 2.07%
[3]
  activity change, negative = inhibition: 10.4%
[4]
  activity change, negative = inhibition: 0.006%
[5]
  activity change, negative = inhibition: 4.74%

## O=C(Cn1ccc2cc(S(=O)(=O)N3CCCCC3)ccc21)NCc1cccc(Cl)c1
[1]
  activity change, negative = inhibition: 5.45%
[2]
  activity change, negative = inhibition: 0.529%
[3]
  activity change, negative = inhibition: 6.43%
[4]
  activity change, negative = inhibition: -5.62%
[5]
  activity change, negative = inhibition: 0.464%

## COc1ccc(-c2nnn3c2nc(NCc2cccc(OC)c2)c2ccccc23)cc1
[1]
  activity change, negative = inhibition: 0.276%
[2]
  activity change, negative = inhibition: 4.46%
[3]
  activity change, negative = inhibition: 3.02%
[4]
  activity change, negative = inhibition: 2.3%
[5]
  activity change, negative = inhibition: -3.16%

## Cc1ccc(N2C(=O)c3cc4sccc4n3CC2(C)C(=O)NC2CCCCC2)cc1C (stereo not given)
[1]
  activity change, negative = inhibition: -1.35%
[2]
  activity change, negative = inhibition: 4.84%
[3]
  activity change, negative = inhibition: 1.24%
[4]
  activity change, negative = inhibition: 7.23%
[5]
  activity change, negative = inhibition: -2.28%

## CC(C)NC(=O)c1ccc2c(=O)n(C(C)C)c3nn(CC(=O)NC4CCCCC4)c(=O)n3c2c1
[1]
  activity change, negative = inhibition: 2.99%
[2]
  activity change, negative = inhibition: 3.05%
[3]
  activity change, negative = inhibition: 2.39%
[4]
  activity change, negative = inhibition: -0.647%
[5]
  activity change, negative = inhibition: -1.02%

## Cc1cc(C(=O)N2CCN(c3cccc(Cl)c3)CC2)n(-c2ccccc2)n1
[1]
  activity change, negative = inhibition: -0.477%
[2]
  activity change, negative = inhibition: -3.52%
[3]
  activity change, negative = inhibition: 2.59%
[4]
  activity change, negative = inhibition: -25.2%
[5]
  activity change, negative = inhibition: -10.4%

## CC(C)S(=O)(=O)N1CCC2(CC1)CC1C(=O)NCCN1C2 (stereo not given)
[1]
  activity change, negative = inhibition: -7.01%
[2]
  activity change, negative = inhibition: -7.75%
[3]
  activity change, negative = inhibition: -2.9%
[4]
  activity change, negative = inhibition: -9.93%
[5]
  activity change, negative = inhibition: -17.3%

## Cc1ccc2n1CCN(C(=O)Nc1cccc(Cl)c1)C2C(C)C (stereo not given)
[1]
  activity change, negative = inhibition: 10.2%
[2]
  activity change, negative = inhibition: 1.6%
[3]
  activity change, negative = inhibition: -0.177%
[4]
  activity change, negative = inhibition: 0.94%
[5]
  activity change, negative = inhibition: 3.62%

## C=C1CC[C@H]2[C@@](C)(CCC(O)[C@@]2(C)CO)[C@@H]1/C=C/C(=C\C(=O)O)C(=O)O (stereo not given in full)
[1]
  activity change, negative = inhibition: 0.91%
[2]
  activity change, negative = inhibition: 1.92%
[3]
  activity change, negative = inhibition: 9.47%
[4]
  activity change, negative = inhibition: -10.3%
[5]
  activity change, negative = inhibition: -1.69%

## Cc1ccc(CNS(=O)(=O)c2cc3c(cc2Cl)n(C)c(=O)n3C)cc1
[1]
  activity change, negative = inhibition: 6.12%
[2]
  activity change, negative = inhibition: 0%
[3]
  activity change, negative = inhibition: -1.66%
[4]
  activity change, negative = inhibition: 0.815%
[5]
  activity change, negative = inhibition: 1.77%

## COc1ccc(C(=O)Cn2nc3n(C(C)C)c(=O)c4ccc(C(=O)NC(C)C)cc4n3c2=O)cc1
[1]
  activity change, negative = inhibition: 0.042%
[2]
  activity change, negative = inhibition: 0%
[3]
  activity change, negative = inhibition: 4.9%
[4]
  activity change, negative = inhibition: -1.95%
[5]
  activity change, negative = inhibition: 3.73%

## CCOC(=O)c1cc2n(n1)CC(C)(C(=O)NC1CCCCCC1)N(c1ccc(C)c(F)c1)C2=O (stereo not given)
[1]
  activity change, negative = inhibition: -0.493%
[2]
  activity change, negative = inhibition: 0.301%
[3]
  activity change, negative = inhibition: 2.13%
[4]
  activity change, negative = inhibition: 5.22%
[5]
  activity change, negative = inhibition: -0.544%

## CCC(C)NC(=O)c1ccc2c(=O)n(C(C)C)c3nn(Cc4c(F)cccc4Cl)c(=O)n3c2c1 (stereo not given)
[1]
  activity change, negative = inhibition: 7.05%
[2]
  activity change, negative = inhibition: 0%
[3]
  activity change, negative = inhibition: 5.09%
[4]
  activity change, negative = inhibition: 2.48%
[5]
  activity change, negative = inhibition: 3.35%
